Screen size: about 43,000 compounds; about 200 (0.47%) were called active. Not shown: some 12% with an inconclusive outcome. The call rests on the fitted dose curve; in most records, active means well fitted cell-killing curve with a large enough effect; inconclusive means small, poorly fitted or top-dose-only effect, or effect the other way; inactive means flat fitted curve, though single readings scatter. Some of the results follow.
test: Cell viability qHTS assay in S16 Pmp22-F2sN cells; details: S16 Pmp22-F2sN Schwann cells viability, CellTiter-Glo, 24 h; series mostly up to 57.5 µM; activity change, negative = cytotoxicity: at the top concentration; further: nearly all actives have a fitted effect of over 65% in size
Method in brief: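 S16 Pmp22-F2sN Schwann cells (500-1,000/well) in phenol-red-free DMEM with 10% FBS received 23 nL compound by pin tool for 24 h at 37 °C. Viability was then read as CellTiter-Glo luminescence after 15 min at room temperature.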
On the % scale 0 is the no-effect control and ±100 the full control effect.

Compound | activity change, negative = cytotoxicity
CCOc1ccc(NC(=O)Cn2c(=O)n(CC3CCCO3)c(=O)c3ccccc32)cc1 (centres undefined) | inactive: -8.36%
CCc1ccc(NC(=O)CSc2nc(C)cc(COC)c2C#N)cc1 | inactive: 7.15%
CCc1ccc(-n2nc(C)c3c(C)cc(=O)n(CC(=O)NCc4ccc(C)cc4)c32)cc1 | inactive: 0.3%
CCOc1ccc2nc(N3CCCC(C(=O)NCc4ccccc4Cl)C3)sc2c1 (centres undefined) | inactive: 2.43%
O=C(NCc1ccccc1)C1CCN(C(=O)c2cnn(-c3ccccc3)c2-n2cccc2)CC1 | inactive: -3.39%
C=Cc1ccc(Cn2c(=O)n(-c3ccc(C)cc3)c(=O)c3c2c2cc(OC)ccc2n3C)cc1 | inactive: -3.32%
CN(C)CCNC(=O)CN1C(=O)CCn2nc(-c3cn(C)c4ccccc34)cc21 | inactive: -2.99%
Cc1cc(C)cc(-n2nnc(-c3nsc(NC(=O)c4ccccc4Cl)n3)c2C)c1 | inactive: 11%
CCc1ccc(NC(=O)Cn2ncc3c(C)n(Cc4cccc(Cl)c4)c(C)c3c2=O)cc1 | inactive: 8.85%
COc1cccc(CNC(=O)c2ccc(-c3nc(CS(=O)(=O)c4ccccc4)c(C)o3)cc2)c1 | inactive: -29.7%
CCC1CCCCN1C(=O)CSc1n[nH]c(-c2ccccc2Cl)n1 (centres undefined) | inactive: -0.231%
CCN(c1ccc(OC)cc1)S(=O)(=O)c1nnc(NC(=O)c2ccccc2C)s1 | inactive: -8.14%
COC(=O)c1cc2sccc2n1Cc1nc(-c2cccc(Br)c2)oc1C | inactive: 1.71%
CC(=O)Nc1ccc(S(=O)(=O)NCc2ccc(C(=O)NCc3ccc(Cl)cc3)cc2)cc1 | inactive: 18.6%
O=C(Nc1ccc(C(F)(F)F)cc1)C1CCCN(S(=O)(=O)c2cccc3cccnc23)C1 (centres undefined) | inactive: -5.67%
O=C(Cc1ccc(F)cc1)NCc1nc2cccnc2n1Cc1ccc(F)cc1 | inactive: -14.2%
FC(F)(F)c1cccc(N2CCN(Cc3nnc(-c4ccc5c(c4)OCO5)o3)CC2)c1 | inactive: 5.78%
Cc1ccccc1OCC(=O)Nc1ccc(OCc2cc(=O)n3ccsc3n2)cc1 | inactive: -0.557%
CCOC(=O)c1cccc(NC(=O)N2CCC(CN3CCc4ccccc4C3)CC2)c1 | inactive: 11.1%
NS(=O)(=O)c1ccc(CCNC(=O)c2ccc3nc(Cc4ccccc4)oc3c2)cc1 | inactive: 17.9%
CCCc1cc(=O)oc2cc(C)c3c(-c4cccc(OC)c4)coc3c12 | inactive: 5.13%
CC(C)(C)C1CCc2c(sc(NC(=O)CCC(=O)O)c2C(=O)Nc2ccccc2C(F)(F)F)C1 (centres undefined) | inactive: 7.75%
CC1CCCN(Cc2nc3c(c(=O)n(C)c(=O)n3C)n2Cc2ccc(Cl)cc2Cl)C1 (centres undefined) | inactive: -2.39%
COc1cccc(-c2nc(SCC(=O)NCC3CCCO3)c(-c3ccc(F)cc3)[nH]2)c1 (centres undefined) | inactive: 5.98%

Compound | activity change, negative = cytotoxicity
CCOC(=O)c1cccc(NC(=O)N2CC(CC)Sc3ccccc32)c1 (centres undefined) | inactive: 13.4%
COc1ccc(CCNC(=O)C2CCN(c3ncnc4c3nc3n4CCCCC3)CC2)c(OC)c1 | inactive: -5.03%
CCOc1ccc(S(=O)(=O)c2c[nH]c3ccccc3c2=O)cc1 | inactive: 4.09%
Cc1ccccc1C(=O)Nc1ccc2nc(Nc3cccc(C(F)(F)F)c3)cc(C)c2c1 | inactive: -1.66%
CCOC(=O)c1ccc(NC(=O)CSc2nccn2-c2ccc(OCC)cc2)cc1 | inactive: -14%
FC(F)(F)c1cccc(-c2nnn3c2nc(NC2CCCCC2)c2ccccc23)c1 | inactive: -11.5%
Cc1cccc(N2CCN(C(=O)Cn3cnc4sc(C)c(S(=O)(=O)N5CCN(c6ncccn6)CC5)c4c3=O)CC2C)c1 (centres undefined) | inactive: 18.3%
CCC(C)NC(=O)C1CCN(C(=O)c2ccc(-n3ccc4ccccc43)s2)CC1 (centres undefined) | inactive: -8.02%
COc1ccccc1CCNC(=O)Cc1c(C)c2c(cc(C)c3c(C)c(C)oc32)oc1=O | inactive: -3.45%
Cc1cccc(-c2nc(CSCC(=O)N3CCN(c4ccccc4)CC3)c(C)o2)c1 | inactive: -5.16%
COc1ccccc1Cc1nc2ccccc2nc1SCC(=O)N1CCc2ccccc21 | inactive: 9.8%
COc1ccccc1N1CCN(c2ccc(-c3nc(-c4ccccc4C)no3)cc2[N+](=O)[O-])CC1 | inactive: -0.0787%
CCOc1ccc(CCNC(=O)c2cc(=O)[nH]c3ccc(S(=O)(=O)N4CCCCC4)cc23)cc1OCC | inactive: 7.99%
CCOc1ccccc1CNC(=O)C1CCN(S(=O)(=O)c2c(C)noc2/C=C/c2ccc(C)cc2)CC1 | inactive: -16%
COc1cccc(NC(=O)C(=O)NCCc2csc(-c3ccc(C(F)(F)F)cc3)n2)c1 | inactive: -1.44%
COc1cc([N+](=O)[O-])ccc1NC(=O)N1CCN(c2cc(-c3noc(C)n3)ccc2C)CC1 | inactive: -2.51%
COc1ccc(NC(=O)C(C)n2nnc3sc(-c4ccccc4)cc3c2=O)cc1Cl (centres undefined) | inactive: 1.51%
CC(C)CC(=O)NCC1(N(C)C)CCCCC1 | inactive: -8.9%
Cc1cccc(N(C)c2nc3ccc(C)cc3n3cnnc23)c1 | inactive: 16.6%
CCCCOc1ccccc1C(=O)Nc1nonc1-c1ccccc1 | inactive: -27%
COc1cc(OC)c(NC(=O)N2CCc3c(sc4c3CCCC4)C2c2ccccc2)cc1Cl (centres undefined) | inactive: 2.65%
O=C(Nc1nnc(S(=O)(=O)N2CCCCCC2)s1)c1ccccc1Cl | inactive: -1.73%
CCOc1ccc(NC(=O)c2cc3c(s2)-c2ccccc2OC3)cc1 | inactive: -0.0447%
Cc1cccc(NC(=O)C(Cc2ccccc2)n2cccc2)c1C (centres undefined) | inactive: -0.664%

Compound | activity change, negative = cytotoxicity
Cc1nc(-c2ccccc2)sc1CCNC(=O)C(=O)Nc1ccc2c(c1)OCCO2 | inactive: 7.02%
Cc1ccc(CNC(=O)CCCN2C(=O)c3cccnc3Oc3ccc(Cl)cc32)cc1 | inactive: -4.23%
CNS(=O)(=O)c1cn(CC(=O)Nc2ccc(C)c(N(C)C)c2)cc1S(=O)(=O)NC | inactive: -0.981%
CCN(C(=O)c1cc(S(=O)(=O)N2CCc3ccccc32)cn1C)c1cccc(C)c1 | inactive: 5.19%
CC1=C(C(N)=O)C(c2ccc(F)cc2)n2nc(-c3ccc(N(C)C)cc3)nc2N1 (centres undefined) | inactive: -0.734%
Cc1ccc(Cl)cc1N1CCN(C(=O)c2cccn2-c2nnc(N3CCCC3)s2)CC1 | inactive: -17.2%
Cc1ccc2c(=O)c(C(=O)c3ccc(F)cc3)cn(CC(=O)NCc3ccccc3Cl)c2n1 | inactive: -3.62%
Cc1ccc(-c2nn(CC(=O)NC3CCCCC3)c3c2cnc2ccccc23)cc1 | inactive: 7.57%
CC(C)(C)OC(=O)N1CCC(c2c(C(=O)NCc3ccc4c(c3)OCO4)cnn2-c2ccccc2Cl)CC1 | inactive: -6.46%
COc1ccc(NC(=O)c2ccc3c(c2)nnn3C2CCCC2)cc1Cl | inactive: 6.11%
Cc1ccc(Cn2c(C(=O)O)c(CNCc3cccs3)c3ccc(C)cc32)cc1 | inactive: -1.64%
Cc1ccc(Cl)cc1NC(=O)c1ccc2snnc2c1 | inactive: 26.2%
COc1cc(NC(=O)NCCn2nnc3cc(S(=O)(=O)N(C)C)ccc32)cc(OC)c1 | inactive: 8.39%
COc1ccc(C(=O)Nc2nnc(S(=O)(=O)N(CC(C)C)c3ccccc3)s2)cc1 | inactive: -0.506%
COc1ccc(OC)c(C2C(C(=O)Nc3ccccc3OC)=C(C)Nc3c(C(=O)Nc4ccc(F)cc4)cnn32)c1 (centres undefined) | inactive: 1.7%
COc1ccc(C(=O)Nc2c(C(=O)c3ccccc3)oc3ccccc23)cc1 | inactive: 9.93%
CCOC(=O)c1cccc(NC(=O)C2CCCN(c3nnc(C)c4c(C)n(-c5ccccc5)nc34)C2)c1 (centres undefined) | inactive: 13%
O=C(Nc1cc(Cl)cc(Cl)c1)c1cc(S(=O)(=O)N2CCc3ccccc3C2)ccc1F | inactive: -14.5%
COc1ccc(NC(=O)c2cc3cc(C)ccc3n2C)cc1 | inactive: 6.89%
Cc1ccc(-c2nnc3ccccc3c2C(=O)Nc2cccc(Cl)c2)cc1 | inactive: -2.31%
Cn1c(=O)c(=O)n(C)c2cc(N3CCOCC3)c(NS(=O)(=O)c3ccc(F)c(Cl)c3)cc21 | inactive: -0.118%
Cc1cccc(-c2nc(SCC(=O)NCc3ccco3)c3c(=O)n(C)c(=O)n(C)c3n2)c1 | inactive: -2.33%
Cc1ccc(Cn2c(CNS(=O)(=O)c3ccc(Cl)s3)nc3cccnc32)cc1 | inactive: -12.6%
Cc1cc2[nH]c(=O)c(=O)[nH]c2cc1S(=O)(=O)N1CCN(c2cccc(C)c2C)CC1 | inactive: 20.7%

Compound | activity change, negative = cytotoxicity
CCOC(=O)C(=O)Nc1c(C(=O)Nc2cccc(F)c2)oc2ccccc12 | inactive: 0.456%
COc1ccccc1N1CCN(c2nc3c(S(=O)(=O)c4ccc(C)c(C)c4)nnn3c3ccc(Cl)cc23)CC1 | inactive: 6.84%
CCOC(=O)c1ccc(NS(=O)(=O)c2cc(Br)cc3c2N(C(C)=O)C(C)C3)cc1 (centres undefined) | inactive: -0.415%
CCN(CCCNC(=O)c1nn(-c2ccc(OC)c(Cl)c2)c(=O)c2c1c1ccccc1n2C)c1cccc(C)c1 | inactive: 4.73%
CCc1ccccc1Nc1cc(C(=O)NC2CCC(C)CC2)c2ccccc2n1 (centres undefined) | inactive: 1.73%
COc1ccc(CNC(=O)c2cc(-c3ccc(C)c(C)c3)n[nH]2)cc1 | inactive: -14.9%
O=C(Nc1nnc(S(=O)(=O)N2CCc3ccccc32)s1)c1ccccc1 | inactive: 0.126%
CCOc1nc(-c2ccc(C)cc2)ccc1-c1noc(-c2ccccc2F)n1 | inactive: 4.54%
CCOC(=O)c1c(NC(=O)COc2cccc(C(F)(F)F)c2)sc2c1CCCCC2 | inactive: 0.225%
CC(C)COc1ccc(C(=O)N2CCN(CCc3ccccn3)CC2)cc1 | inactive: 5.93%
COc1ccc(CCNC(=O)CCc2c(C)c3cc4c(C)c(C)oc4cc3oc2=O)cc1 | inactive: -8.55%
COc1ccc(NC(=O)CC(C)n2nc(C)cc2C)cc1Cl (centres undefined) | inactive: -1.54%
CCOc1ccc(CCNC(=O)Cn2ncn3c(cc4ccccc43)c2=O)cc1OCC | inactive: 5.5%
CCn1c(C(=O)Nc2cc(Cl)ccc2C)cc2sc(Cl)cc21 | inactive: 21.9%
COc1cc(NC(=O)c2cnc3c(-c4ccc(F)cc4)c(C)nn3c2C)cc(OC)c1 | inactive: -19.5%
Cc1ccc(Sc2c(C(=O)NCc3ccccc3C)[nH]c3ccccc23)cc1 | inactive: 6.05%
Cc1ccc(-c2nc3ccc(Cl)cn3c2Nc2ccc3c(c2)OCCO3)s1 | inactive: 13.8%
CCN(CC)S(=O)(=O)c1ccc2oc(C(=O)Nc3ccc(Br)cc3F)c(C)c2c1 | inactive: -3.75%
COc1ccc(CNC(=O)CN2C(=O)CCCc3ccccc32)cc1 | inactive: 3.76%
N#Cc1ccccc1Cn1c(=O)n(Cc2ccc(C(=O)NC3CCN(Cc4ccccc4)CC3)cc2)c(=O)c2ccccc21 | inactive: 4.68%
CCCOc1ccc(CN(C(=O)c2nc(SC(C)C)ncc2Cl)C2CCS(=O)(=O)C2)cc1 (centres undefined) | inactive: -9.55%
CCOc1ccc(/C=C/c2nc(C#N)c(Nc3ccc(OC)cc3)o2)cc1 | inactive: 2.58%

Reference: PubChem BioAssay AID1508642 (National Center for Advancing Translational Sciences (NCATS), 2021)
